85 molecules from publication PMC4336329 (PLoS ONE, 2015) can be followed below.

In all, about 310,000 compounds went through this assay and about 14,000 (4.5%) showed an effect of 50% or more. Effects have a minus sign here. Some of the results follow.
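Further: peak tail current of the secondary pulse compared with the same well before compound.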

This experiment deals with human ether-à-go-go-related gene (hERG) potassium channel (human, UniProt Q12809). The experiment in a line: primary screen, population patch clamp on CHO cells stably expressing hERG.
human ether-à-go-go-related gene (hERG) potassium channel, sequence (Q12809 whole entry, looked up): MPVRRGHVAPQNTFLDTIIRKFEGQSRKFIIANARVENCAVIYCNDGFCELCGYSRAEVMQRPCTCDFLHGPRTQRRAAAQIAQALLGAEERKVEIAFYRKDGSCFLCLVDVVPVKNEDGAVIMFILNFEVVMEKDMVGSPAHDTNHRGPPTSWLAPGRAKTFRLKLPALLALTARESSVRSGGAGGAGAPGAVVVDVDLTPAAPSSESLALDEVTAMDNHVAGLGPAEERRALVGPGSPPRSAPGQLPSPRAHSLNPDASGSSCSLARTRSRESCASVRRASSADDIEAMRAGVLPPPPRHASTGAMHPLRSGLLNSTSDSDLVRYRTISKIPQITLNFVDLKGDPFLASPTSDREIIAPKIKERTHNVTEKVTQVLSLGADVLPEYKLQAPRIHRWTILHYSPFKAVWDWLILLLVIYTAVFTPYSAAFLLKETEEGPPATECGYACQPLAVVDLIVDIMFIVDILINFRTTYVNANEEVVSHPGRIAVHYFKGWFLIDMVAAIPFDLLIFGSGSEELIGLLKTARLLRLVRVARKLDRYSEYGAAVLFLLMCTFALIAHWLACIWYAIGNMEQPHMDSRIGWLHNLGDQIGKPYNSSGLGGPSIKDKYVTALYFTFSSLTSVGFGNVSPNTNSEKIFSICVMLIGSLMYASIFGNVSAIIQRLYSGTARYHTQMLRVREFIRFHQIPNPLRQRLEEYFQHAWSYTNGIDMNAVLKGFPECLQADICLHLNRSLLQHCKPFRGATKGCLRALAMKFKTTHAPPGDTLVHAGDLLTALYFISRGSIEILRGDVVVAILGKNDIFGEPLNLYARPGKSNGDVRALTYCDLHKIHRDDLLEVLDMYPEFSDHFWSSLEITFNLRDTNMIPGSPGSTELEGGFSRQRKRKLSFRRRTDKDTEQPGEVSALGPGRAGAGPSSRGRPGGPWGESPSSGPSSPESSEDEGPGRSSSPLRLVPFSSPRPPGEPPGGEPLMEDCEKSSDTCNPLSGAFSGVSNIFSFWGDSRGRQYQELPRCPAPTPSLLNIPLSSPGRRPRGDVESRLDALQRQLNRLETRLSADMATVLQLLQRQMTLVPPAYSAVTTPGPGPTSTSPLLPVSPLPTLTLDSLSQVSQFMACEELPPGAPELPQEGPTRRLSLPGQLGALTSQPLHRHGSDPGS
Turning to `CCC(C)c1ccc(S(=O)(=O)N2CCN(CC(O)CN3CCOCC3)CC2)cc1` (stereo not shown), the “hERG current change (%, negative = inhibition) at 10uM” value is recorded as -24.1%.
In the case of `Cc1cc(NC(=O)/C=C/C(=O)N(c2ccccc2C)C(C(=O)NC2CCCC2)c2ccc(F)cc2)no1` (stereo not shown), the “hERG current change (%, negative = inhibition) at 10uM” value worked out at 17.8%.
The result for `CC(C)NS(=O)(=O)c1ccc(OCC(=O)Nc2ccccc2F)cc1` reads 8.99%.
The result for `CC1CN(CCOc2ccccc2C(C)C)CC(C)O1.O=C(O)C(=O)O` (stereo not shown) reads 0.742%; that for `CCOC(=O)C1=C(C)N(C)C(C)=C(C(=O)OCC)C1c1ccsc1`, 32.9%.
`CC(C)c1ccc(CCNC(=O)CCNC(=O)c2ccc(Br)cc2)cc1`: the “hERG current change (%, negative = inhibition) at 10uM” value came out at 5.74%.
Take `CC(C)(C)c1ccc(OCC(O)CN2CCN(C(=O)c3ccccc3)CC2)cc1.O=C(O)C(=O)O` (stereo not shown): the “hERG current change (%, negative = inhibition) at 10uM” value is -50.7%.
Consider `CC(C)Nc1ccc(C(CC(N)=O)NC(=O)c2ccc(Br)cc2)cc1[N+](=O)[O-]` (stereo not shown), for which the “hERG current change (%, negative = inhibition) at 10uM” value is given as -9.82%.
For `O=C(NCc1ccccn1)c1nc(Cn2cc([N+](=O)[O-])cn2)no1`, the “hERG current change (%, negative = inhibition) at 10uM” value is reported as 1.6%.
The result for `Cc1sc2ncnc(N3CCC(C(=O)Nc4ccc(C#N)cc4)CC3)c2c1C` reads 7.52%; that for `CC1=NN(c2ccc(Br)cc2)C(=O)/C1=C/c1cccs1`, 17.3%; that for `Cc1nnc(Nc2ccc(O)cc2)[nH]c1=O`, 27.7%.
Turning to `CCc1cc(=O)oc2cc(OCC(=O)NCc3ccccn3)ccc12`, the “hERG current change (%, negative = inhibition) at 10uM” value is on record as -12.7%.
`Cc1ccc(OCCCN2C(=O)C(=O)c3cc(C)ccc32)cc1`: the “hERG current change (%, negative = inhibition) at 10uM” value is listed as 4.57%.
The result for `O=C(COc1ccc2ccccc2c1)NNC(=O)Cc1ccccc1` reads 29.7%.
The result for `Cc1ccc(CNC(=O)c2ccc3c(=O)n4c(-c5ccc(C)cc5)csc4nc3c2)cc1` reads 7.48%; that for `COc1ccc2[nH]c3c(c2c1)CC(C)NC3=O` (stereo not shown), 14.9%.
With `CCOc1ccc(C(=O)N(CC)CC(=O)Nc2ccc3c(c2)OCCO3)cc1OCC`, the “hERG current change (%, negative = inhibition) at 10uM” value is 3.3%.
On to `Cc1sc(NC(=O)CN(Cc2ccccc2)C(=O)C(C)C)c(C(N)=O)c1C`, for which the “hERG current change (%, negative = inhibition) at 10uM” value was -0.293%.
As to `CSCc1ccc(C(=O)N2CCCC(Nc3ccc(F)cc3)C2)o1` (stereo not shown), the “hERG current change (%, negative = inhibition) at 10uM” value is -18.7%.
Regarding `COc1ccccc1C(=O)N1C(CC(=O)Nc2ccc(C)c(C)c2)C(=O)NC2CCCCC21` (stereo not shown), the “hERG current change (%, negative = inhibition) at 10uM” value is -0.911%.
The result for `CC(=O)COc1nc2c(c(-c3ccco3)c1C#N)CCc1ccccc1-2` reads 5.31%.
Take `COc1cccc(/C=N/NC(=O)c2cc(-c3cccn3C)n[nH]2)c1`: the “hERG current change (%, negative = inhibition) at 10uM” value was -61.1%.
Turning to `Cc1ccc(C(=O)NC2CCN(CC(=O)Nc3c(C)cc(C)cc3C)CC2)cc1`, the “hERG current change (%, negative = inhibition) at 10uM” value is recorded as -11.9%.
For the molecule `CN(CCC(=O)Nc1cc(S(=O)(=O)N(C)C)ccc1Cl)CC(=O)Nc1ccc(F)cc1`, the “hERG current change (%, negative = inhibition) at 10uM” value was -50.1%.
Take `Cc1cc(C(=O)N/N=C/c2cc(N=Nc3ccccc3)ccc2O)n[nH]1`: the “hERG current change (%, negative = inhibition) at 10uM” value amounted to 13.8%.
Take `O=C(CSc1ncn[nH]1)N1c2ccccc2Sc2ccccc21`: the “hERG current change (%, negative = inhibition) at 10uM” value is -5.46%.
In the case of `COC(=O)C1=C(C(=O)OC)[C@@H]2N(Cc3ccccc3)c3ccccc3[C@@]23C[C@@H](C(=O)OC)N(C(=O)c2cccs2)C3=N1`, the “hERG current change (%, negative = inhibition) at 10uM” value stood at 9.39%.
In the case of `CCOc1cc(C(C(=O)NCC2CCCO2)N(C(=O)Cn2nnc3ccccc32)c2cccc(OC)c2)ccc1O` (stereo not shown), the “hERG current change (%, negative = inhibition) at 10uM” value came out at 0.616%.
As for `CC(=O)C1=C(O)C(=O)N(c2ccc(O)cc2)C1c1ccc(F)cc1` (stereo not shown), the “hERG current change (%, negative = inhibition) at 10uM” value is recorded as 22.3%.
The result for `O=C(/C=C/c1cccs1)NC(=S)Nc1ccc(S(=O)(=O)Nc2ccccc2C(F)(F)F)cc1` reads 22.3%.
In the case of `COc1ccc(C)cc1NC(=O)c1ccc([N+](=O)[O-])cc1[N+](=O)[O-]`, the “hERG current change (%, negative = inhibition) at 10uM” value came to 1.26%.
The result for `CCCCN(CCCC)c1nc(-c2ccncc2)nc2ccccc12` reads -0.281%.
In the case of `Cc1ccccc1CS(=O)(=O)c1cnc2ccccc2n1`, the “hERG current change (%, negative = inhibition) at 10uM” value is listed as -1.73%.
The result for `COc1cc(S(=O)(=O)NC(C)C)ccc1Cl` reads -8.63%; that for `CC(Sc1nnc(-c2ccc(OC(F)F)cc2)o1)C(=O)NCC1CCCO1` (stereo not shown), -27.6%; that for `CCOc1ccc(C(C)=O)cc1COc1cccnc1[N+](=O)[O-]`, 0.534%.
Take `CCN1C(=O)S/C(=C\c2ccc(N3CCOCC3)cc2C)C1=O`: the “hERG current change (%, negative = inhibition) at 10uM” value is listed as -19.7%.
With `CCOC(=O)C1=C(C)NC(C)=C(C(=O)OCC)C1c1ccco1`, the “hERG current change (%, negative = inhibition) at 10uM” value is on record as 2.36%.
As for `O=S(=O)(NCc1ccco1)c1ccc(S(=O)(=O)N2CCCC2)cc1`, the “hERG current change (%, negative = inhibition) at 10uM” value is on record as 6.87%.
For the molecule `Cc1cc(C)c2c(=O)[nH]c(SCC(=O)N3CCCCC3)nc2n1`, the “hERG current change (%, negative = inhibition) at 10uM” value was -5.61%.
For `O=C1OCc2nc3cc4c(cc3c(-c3ccc(F)cc3)c21)OCO4`, the “hERG current change (%, negative = inhibition) at 10uM” value is reported as 23.6%.
The result for `CN1C(=O)c2cccc3c(S(=O)(=O)NCCc4ccccc4)ccc1c23` reads -27%; that for `O=C(CCCCl)Nc1nc(-c2ccc3c(c2)OCCO3)cs1`, 9.6%.
With `N#Cc1ccc(S(=O)(=O)N2CCN(C(=O)C3CC(=O)N(c4ccc5c(c4)OCCO5)C3)CC2)cc1` (stereo not shown), the “hERG current change (%, negative = inhibition) at 10uM” value is on record as -38.8%.
For the molecule `C=CCn1c(SCC(=O)NCC)nnc1-c1cc2c(s1)CCC(CC)C2` (stereo not shown), the “hERG current change (%, negative = inhibition) at 10uM” value was -24%.
Regarding `CCN(CC)C(=O)C(=O)c1cccn1-c1ccc(C#N)cc1`, the “hERG current change (%, negative = inhibition) at 10uM” value is -18.8%.
The result for `CC(=O)c1ccc(N2CCN(CC(=O)Nc3ccc(N4CCOCC4)cc3)CC2)cc1` reads -2.34%; that for `O=C(CSc1ccsc1[N+](=O)[O-])N1CCN(c2ccccc2)CC1`, 2.71%.
Consider `O=C(CCc1ccc(S(=O)(=O)NCc2ccccc2)cc1)N1CCN(Cc2ccc3c(c2)OCO3)CC1`, for which the “hERG current change (%, negative = inhibition) at 10uM” value was -41.2%.
With `COc1cc(CN2CCC(n3nccc3NC(=O)c3ccc4c(c3)OCO4)CC2)ccc1O`, the “hERG current change (%, negative = inhibition) at 10uM” value was -6.7%.
The result for `Cc1ccc(C)c(Sc2ccc(S(=O)(=O)Nc3ccc(C(=O)O)cc3)cc2)c1` reads -0.837%; that for `Cc1ccc(Cl)cc1N1CCN(S(=O)(=O)c2c(C)[nH]c(C)c2C(=O)N2CCCC2)CC1`, -6.84%.
For `C/C=C(\C)C(=O)N1CCC(C(=O)c2ccccc2)CC1`, the “hERG current change (%, negative = inhibition) at 10uM” value turned out to be 12.3%.
On to `COc1ccc(NC(=S)Nc2ccccn2)c(OC)c1`, for which the “hERG current change (%, negative = inhibition) at 10uM” value turned out to be 20.4%.
On to `c1ccc2c(c1)oc1c(NCc3ccc4c(c3)OCO4)ncnc12`, for which the “hERG current change (%, negative = inhibition) at 10uM” value worked out at 4.7%.
Turning to `CC(C)Nc1nc(Cl)nc(NNC(=O)C(C)Oc2ccccc2)n1` (stereo not shown), the “hERG current change (%, negative = inhibition) at 10uM” value was 4.76%.
On to `Cc1n[nH]c(C)c1S(=O)(=O)N1CCc2ccccc21.Cl`, for which the “hERG current change (%, negative = inhibition) at 10uM” value is 3.24%.
For the molecule `CCCCn1c(SCC(=O)NNC(=O)c2ccco2)nnc1-c1ccco1`, the “hERG current change (%, negative = inhibition) at 10uM” value was 4%.
Consider `CC(C)(C)C(=O)Nc1ccc(Oc2ccc3c(c2)C(=O)N(c2ccc(O)cc2)C3=O)cc1`, for which the “hERG current change (%, negative = inhibition) at 10uM” value was -14.2%.
On to `Cc1cc(C)nc(N2CCCC(C(=O)NCCC3=CCCCC3)C2)n1` (stereo not shown), for which the “hERG current change (%, negative = inhibition) at 10uM” value is listed as -3.18%.
With `Cc1nc2c(C(=O)N3CCN(c4ccccn4)CC3)cnn2c(C)c1Cc1cccc(Cl)c1`, the “hERG current change (%, negative = inhibition) at 10uM” value is -43.4%.
With `c1ccc(-c2noc(-c3ccc4ccccc4c3)n2)nc1`, the “hERG current change (%, negative = inhibition) at 10uM” value was determined as 16.5%.
As for `O=C1c2ccccc2C(Nc2ccc(S(=O)(=O)N3CCCCCC3)cc2)N1c1ccccn1` (stereo not shown), the “hERG current change (%, negative = inhibition) at 10uM” value amounted to 10.3%.
The result for `O=C(O)Cc1cc2c(s1)CCCCC2` reads 29.5%; that for `Cc1cc(N2CCCC2)ccc1NC(=O)CN1C(=O)NC(C)(c2ccccc2)C1=O` (stereo not shown), 4.86%.
For the molecule `Cc1ccccc1C(=O)Nc1cccc(C(=O)N/N=C/c2ccccn2)c1`, the “hERG current change (%, negative = inhibition) at 10uM” value was found to be 10.9%.
With `Cn1c(=O)[nH]c(=O)c2c1nc(N1CCCCC1)n2CC(O)COc1ccc([N+](=O)[O-])cc1` (stereo not shown), the “hERG current change (%, negative = inhibition) at 10uM” value is reported as -69.8%.
The result for `CCc1cc(=O)oc2c(C)c(OS(C)(=O)=O)ccc12` reads -10.4%.
The result for `CC(=O)c1cc2c(cc1NS(=O)(=O)c1ccc(F)cc1)OCO2` reads 43%; that for `COC(=O)c1ccc(N=Cc2c(-c3ccccc3)[nH][nH]c2=O)cc1`, 29.1%; that for `COc1cc2c(cc1OC)CN(c1ccc(C(F)(F)F)cn1)CC2`, 15.9%.
In the case of `CCN(C(=O)Cc1c(C(=O)O)n(C)c2ccccc12)c1cccc(C)c1`, the “hERG current change (%, negative = inhibition) at 10uM” value was 13.1%.
On to `Cc1cc(-n2c(C)cc(C(=O)COc3ccccc3[N+](=O)[O-])c2C)no1`, for which the “hERG current change (%, negative = inhibition) at 10uM” value is -4.91%.
The result for `Cc1ccccc1CN1CCN(c2nc3ccccc3s2)CC1` reads 16.8%; that for `Cl.Nc1c(Br)cc(Br)cc1CNC1CCC(O)CC1` (stereo not shown), -9.72%; that for `Cc1cccc(NC(=O)c2cnc3n(c2=O)CCS3)c1`, -13.5%.
With `CCC(=O)Nc1nonc1-c1nc2ccccc2n1CC(C)C`, the “hERG current change (%, negative = inhibition) at 10uM” value is listed as -2.85%.
For `O=C(NCC1(c2ccccc2)CCCC1)c1ccc(Br)cc1`, the “hERG current change (%, negative = inhibition) at 10uM” value was -6.15%.
`Cc1ccccc1Cn1nnc(-c2cccc(C(=O)O)c2)n1`: the “hERG current change (%, negative = inhibition) at 10uM” value is -7.2%.
Turning to `COC(=O)c1cn(C(=O)c2cccc(Br)c2)c2ccccc12`, the “hERG current change (%, negative = inhibition) at 10uM” value was 1.86%.
Regarding `CCOc1cc(C(=O)NCc2nnc(SCC(=O)OC)n2C)cc(OCC)c1OCC`, the “hERG current change (%, negative = inhibition) at 10uM” value came out at 3.23%.
`NC(=O)CC(NC(=O)Cc1ccc(Br)cc1)c1ccc(N2CCC(N3CCCCC3)CC2)c([N+](=O)[O-])c1` (stereo not shown): the “hERG current change (%, negative = inhibition) at 10uM” value was 13.6%.
In the case of `Oc1cccc(/C=N/N2CCCCC2)c1O`, the “hERG current change (%, negative = inhibition) at 10uM” value was -1.12%.
With `Nc1nonc1C(=O)NCCNC(=O)c1ccccc1F`, the “hERG current change (%, negative = inhibition) at 10uM” value amounted to 4.12%.
